{"sequences": {"note": "By UniProt entry, the sequences of proteins in these tests, tags left out.", "UniProt P06788": "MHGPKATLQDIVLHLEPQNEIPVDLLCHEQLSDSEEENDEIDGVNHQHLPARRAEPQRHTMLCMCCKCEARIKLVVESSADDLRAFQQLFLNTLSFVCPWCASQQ", "UniProt P03129": "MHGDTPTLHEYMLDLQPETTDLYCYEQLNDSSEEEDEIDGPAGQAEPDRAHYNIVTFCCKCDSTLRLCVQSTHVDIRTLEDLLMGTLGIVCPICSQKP", "UniProt Q5T4S7": "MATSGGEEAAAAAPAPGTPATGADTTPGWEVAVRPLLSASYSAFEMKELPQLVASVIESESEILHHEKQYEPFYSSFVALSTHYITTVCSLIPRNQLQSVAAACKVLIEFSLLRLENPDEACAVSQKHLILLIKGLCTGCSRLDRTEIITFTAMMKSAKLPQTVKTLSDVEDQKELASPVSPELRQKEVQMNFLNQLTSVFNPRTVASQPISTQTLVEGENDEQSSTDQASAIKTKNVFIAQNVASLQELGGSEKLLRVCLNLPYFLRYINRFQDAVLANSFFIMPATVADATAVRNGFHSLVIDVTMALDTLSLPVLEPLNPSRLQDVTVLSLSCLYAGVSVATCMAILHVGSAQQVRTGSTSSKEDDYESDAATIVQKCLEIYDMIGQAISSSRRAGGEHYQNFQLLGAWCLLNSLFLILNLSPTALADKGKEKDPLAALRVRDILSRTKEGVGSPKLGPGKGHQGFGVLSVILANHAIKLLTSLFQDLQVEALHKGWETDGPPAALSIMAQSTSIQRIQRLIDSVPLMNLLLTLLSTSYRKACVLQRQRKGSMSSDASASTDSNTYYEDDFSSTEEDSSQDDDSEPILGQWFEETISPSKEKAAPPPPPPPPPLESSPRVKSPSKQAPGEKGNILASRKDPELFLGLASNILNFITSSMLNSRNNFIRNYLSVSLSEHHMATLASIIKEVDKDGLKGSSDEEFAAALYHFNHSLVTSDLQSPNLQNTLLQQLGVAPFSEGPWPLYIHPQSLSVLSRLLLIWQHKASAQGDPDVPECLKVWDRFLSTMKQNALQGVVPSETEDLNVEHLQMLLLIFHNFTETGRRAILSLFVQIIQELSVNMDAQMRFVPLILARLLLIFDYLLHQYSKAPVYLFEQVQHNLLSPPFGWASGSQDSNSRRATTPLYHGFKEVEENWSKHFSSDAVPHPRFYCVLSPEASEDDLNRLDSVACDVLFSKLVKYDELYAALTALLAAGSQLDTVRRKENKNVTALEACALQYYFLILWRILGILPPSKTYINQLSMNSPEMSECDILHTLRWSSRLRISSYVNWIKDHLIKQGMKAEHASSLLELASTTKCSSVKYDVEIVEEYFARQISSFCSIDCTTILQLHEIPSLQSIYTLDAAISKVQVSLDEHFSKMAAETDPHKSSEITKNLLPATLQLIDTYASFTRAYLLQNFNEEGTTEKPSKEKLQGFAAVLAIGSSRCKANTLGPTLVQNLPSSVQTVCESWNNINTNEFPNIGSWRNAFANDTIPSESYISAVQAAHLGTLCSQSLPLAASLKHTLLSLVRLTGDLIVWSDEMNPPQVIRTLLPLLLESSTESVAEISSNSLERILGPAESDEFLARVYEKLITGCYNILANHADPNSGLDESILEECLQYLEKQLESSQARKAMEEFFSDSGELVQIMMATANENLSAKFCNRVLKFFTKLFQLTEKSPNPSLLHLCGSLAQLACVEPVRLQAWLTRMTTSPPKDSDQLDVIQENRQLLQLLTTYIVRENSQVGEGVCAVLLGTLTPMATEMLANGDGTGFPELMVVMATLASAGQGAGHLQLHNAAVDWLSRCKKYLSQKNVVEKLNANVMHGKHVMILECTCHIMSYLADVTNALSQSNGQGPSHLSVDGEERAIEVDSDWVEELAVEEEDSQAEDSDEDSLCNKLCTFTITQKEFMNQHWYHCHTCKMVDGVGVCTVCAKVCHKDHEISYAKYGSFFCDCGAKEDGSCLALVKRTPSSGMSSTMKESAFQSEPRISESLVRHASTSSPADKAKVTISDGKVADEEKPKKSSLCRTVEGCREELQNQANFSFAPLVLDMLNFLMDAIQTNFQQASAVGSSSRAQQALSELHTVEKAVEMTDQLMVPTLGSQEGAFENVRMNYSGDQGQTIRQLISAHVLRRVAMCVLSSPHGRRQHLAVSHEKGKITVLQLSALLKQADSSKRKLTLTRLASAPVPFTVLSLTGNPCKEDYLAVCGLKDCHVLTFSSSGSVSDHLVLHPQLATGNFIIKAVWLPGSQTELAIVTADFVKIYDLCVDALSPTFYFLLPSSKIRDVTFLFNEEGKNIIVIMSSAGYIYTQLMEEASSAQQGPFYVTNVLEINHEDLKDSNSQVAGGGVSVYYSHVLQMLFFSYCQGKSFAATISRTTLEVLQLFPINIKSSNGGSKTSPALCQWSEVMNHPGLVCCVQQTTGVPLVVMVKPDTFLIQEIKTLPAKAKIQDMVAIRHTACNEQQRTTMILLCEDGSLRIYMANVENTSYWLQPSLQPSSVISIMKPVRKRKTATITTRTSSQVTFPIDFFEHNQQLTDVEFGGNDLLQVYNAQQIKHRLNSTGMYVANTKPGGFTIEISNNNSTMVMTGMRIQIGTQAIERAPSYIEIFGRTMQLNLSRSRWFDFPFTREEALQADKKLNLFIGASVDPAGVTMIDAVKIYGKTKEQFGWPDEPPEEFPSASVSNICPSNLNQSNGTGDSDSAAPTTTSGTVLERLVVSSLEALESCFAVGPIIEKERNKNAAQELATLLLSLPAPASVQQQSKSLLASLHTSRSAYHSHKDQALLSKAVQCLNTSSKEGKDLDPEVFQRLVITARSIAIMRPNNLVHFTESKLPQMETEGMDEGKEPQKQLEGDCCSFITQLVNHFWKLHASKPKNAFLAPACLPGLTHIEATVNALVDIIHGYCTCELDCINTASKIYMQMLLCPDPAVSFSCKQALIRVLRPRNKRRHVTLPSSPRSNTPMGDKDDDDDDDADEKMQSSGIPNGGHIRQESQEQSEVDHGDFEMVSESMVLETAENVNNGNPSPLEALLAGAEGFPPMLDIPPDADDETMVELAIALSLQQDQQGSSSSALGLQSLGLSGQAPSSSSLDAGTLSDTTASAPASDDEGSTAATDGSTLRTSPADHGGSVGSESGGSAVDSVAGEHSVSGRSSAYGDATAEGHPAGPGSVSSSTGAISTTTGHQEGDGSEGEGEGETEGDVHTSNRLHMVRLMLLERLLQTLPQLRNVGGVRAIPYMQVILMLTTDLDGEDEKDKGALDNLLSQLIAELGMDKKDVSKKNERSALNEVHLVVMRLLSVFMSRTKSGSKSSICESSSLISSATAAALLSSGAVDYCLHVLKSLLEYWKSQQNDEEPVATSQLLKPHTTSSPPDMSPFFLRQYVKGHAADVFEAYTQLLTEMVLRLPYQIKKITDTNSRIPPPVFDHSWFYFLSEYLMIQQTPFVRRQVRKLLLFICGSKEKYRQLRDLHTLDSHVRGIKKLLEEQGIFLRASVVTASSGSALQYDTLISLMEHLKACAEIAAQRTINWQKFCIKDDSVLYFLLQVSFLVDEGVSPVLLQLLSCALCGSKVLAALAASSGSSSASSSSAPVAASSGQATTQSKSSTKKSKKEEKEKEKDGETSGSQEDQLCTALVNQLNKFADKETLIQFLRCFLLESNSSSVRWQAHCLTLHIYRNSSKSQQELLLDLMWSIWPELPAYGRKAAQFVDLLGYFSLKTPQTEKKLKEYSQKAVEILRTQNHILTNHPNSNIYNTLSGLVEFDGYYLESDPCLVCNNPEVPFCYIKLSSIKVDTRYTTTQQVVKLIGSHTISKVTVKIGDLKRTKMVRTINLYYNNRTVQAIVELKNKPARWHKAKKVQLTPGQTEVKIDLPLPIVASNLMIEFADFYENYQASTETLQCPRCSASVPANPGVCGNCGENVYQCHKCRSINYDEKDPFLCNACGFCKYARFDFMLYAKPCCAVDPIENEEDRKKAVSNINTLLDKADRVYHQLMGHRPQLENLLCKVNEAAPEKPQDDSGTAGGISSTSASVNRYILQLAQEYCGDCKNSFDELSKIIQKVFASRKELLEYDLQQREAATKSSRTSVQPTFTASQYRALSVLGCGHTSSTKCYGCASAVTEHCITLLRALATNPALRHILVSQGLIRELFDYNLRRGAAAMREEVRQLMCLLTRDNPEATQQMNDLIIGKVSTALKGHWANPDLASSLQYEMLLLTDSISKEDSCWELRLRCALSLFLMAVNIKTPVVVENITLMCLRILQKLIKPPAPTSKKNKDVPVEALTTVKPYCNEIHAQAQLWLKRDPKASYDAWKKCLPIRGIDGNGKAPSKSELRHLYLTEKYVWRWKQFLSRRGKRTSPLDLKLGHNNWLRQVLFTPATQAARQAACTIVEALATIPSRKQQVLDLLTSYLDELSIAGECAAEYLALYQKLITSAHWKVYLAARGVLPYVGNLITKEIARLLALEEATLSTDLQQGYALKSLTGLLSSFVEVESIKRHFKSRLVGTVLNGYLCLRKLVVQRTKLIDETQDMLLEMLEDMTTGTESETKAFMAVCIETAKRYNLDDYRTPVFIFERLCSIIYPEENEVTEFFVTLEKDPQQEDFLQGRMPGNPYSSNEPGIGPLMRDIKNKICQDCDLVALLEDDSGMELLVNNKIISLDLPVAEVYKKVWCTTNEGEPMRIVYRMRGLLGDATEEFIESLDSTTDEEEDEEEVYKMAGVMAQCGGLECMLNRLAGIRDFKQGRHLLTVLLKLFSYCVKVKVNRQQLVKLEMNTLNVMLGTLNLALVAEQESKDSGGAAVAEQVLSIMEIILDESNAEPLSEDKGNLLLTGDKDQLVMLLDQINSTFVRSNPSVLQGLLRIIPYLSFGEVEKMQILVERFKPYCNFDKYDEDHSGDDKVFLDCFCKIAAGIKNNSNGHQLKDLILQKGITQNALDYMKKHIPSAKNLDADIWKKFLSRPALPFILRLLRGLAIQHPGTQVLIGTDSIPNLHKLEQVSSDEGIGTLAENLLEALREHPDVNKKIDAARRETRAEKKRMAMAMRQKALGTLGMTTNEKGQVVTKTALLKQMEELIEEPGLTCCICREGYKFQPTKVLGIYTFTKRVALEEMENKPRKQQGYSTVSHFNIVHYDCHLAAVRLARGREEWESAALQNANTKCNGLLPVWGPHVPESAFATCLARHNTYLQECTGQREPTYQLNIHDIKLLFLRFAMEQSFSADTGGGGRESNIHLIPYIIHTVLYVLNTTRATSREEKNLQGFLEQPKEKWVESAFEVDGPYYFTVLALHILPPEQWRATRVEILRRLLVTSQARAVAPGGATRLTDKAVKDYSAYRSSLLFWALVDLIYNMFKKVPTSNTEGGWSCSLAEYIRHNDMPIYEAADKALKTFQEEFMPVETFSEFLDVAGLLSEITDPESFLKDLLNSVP"}, "source": "paper PMC5030362", "molecules": {"B1": {"name": "RB1, endogenous (protein, UniProt P06400 1-928)", "chain": "MPPKTPRKTAATAAAAAAEPPAPPPPPPPEEDPEQDSGPEDLPLVRLEFEETEEPDFTALCQKLKIPDHVRERAWLTWEKVSSVDGVLGGYIQKKKELWGICIFIAAVDLDEMSFTFTELQKNIEISVHKFFNLLKEIDTSTKVDNAMSRLLKKYDVLFALFSKLERTCELIYLTQPSSSISTEINSALVLKVSWITFLLAKGEVLQMEDDLVISFQLMLCVLDYFIKLSPPMLLKEPYKTAVIPINGSPRTPRRGQNRSARIAKQLENDTRIIEVLCKEHECNIDEVKNVYFKNFIPFMNSLGLVTSNGLPEVENLSKRYEEIYLKNKDLDARLFLDHDKTLQTDSIDSFETQRTPRKSNLDEEVNVIPPHTPVRTVMNTIQQLMMILNSASDQPSENLISYFNNCTVNPKESILKRVKDIGYIFKEKFAKAVGQGCVEIGSQRYKLGVRLYYRVMESMLKSEEERLSIQNFSKLLNDNIFHMSLLACALEVVMATYSRSTSQNLDSGTDLSFPWILNVLNLKAFDFYKVIESFIKAEGNLTREMIKHLERCEHRIMESLAWLSDSPLFDLIKQSKDREGPTDHLESACPLNLPLQNNHTAADMYLSPVRSPKKKGSTTRVNSTANAETQATSAFQTQKPLKSTSLSLFYKKVYRLAYLRLNTLCERLLSEHPELEHIIWTLFQHTLQNEYELMRDRHLDQIMMCSMYGICKVKNIDLKFKIIVTAYKDLPHAVQETFKRVLIKEEEYDSIIVFYNSVFMQRLKTNILQYASTRPPTLSPIPHIPRSPYKFPSSPLRIPGGNIYISPLKSPYKISEGLPTPTKMTPRSRILVSIGESFGTSEKFQKINQMVCNSDRVLKRSAEGSNPPKPLKKLRFDIEGSDEADGSKHLPGESKFQQKLAEMTSTRTRMQKQKMNDSMDTSNKEEK"}, "B2": {"name": "full-length PTPN14 with an N-terminal V5 tag (protein, UniProt Q15678 1-1187)", "chain": "MPFGLKLRRTRRYNVLSKNCFVTRIRLLDSNVIECTLSVESTGQECLEAVAQRLELRETHYFGLWFLSKSQQARWVELEKPLKKHLDKFANEPLLFFGVMFYVPNVSWLQQEATRYQYYLQVKKDVLEGRLRCTLDQVIRLAGLAVQADFGDYNQFDSQDFLREYVLFPMDLALEEAVLEELTQKVAQEHKAHSGILPAEAELMYINEVERLDGFGQEIFPVKDNHGNCVHLGIFFMGIFVRNRIGRQAVIYRWNDMGNITHNKSTILVELINKEETALFHTDDIENAKYISRLFATRHKFYKQNKICTEQSNSPPPIRRQPTWSRSSLPRQQPYILPPVHVQCGEHYSETHTSQDSIFHGNEEALYCNSHNSLDLNYLNGTVTNGSVCSVHSVNSLNCSQSFIQASPVSSNLSIPGSDIMRADYIPSHRHSAIIVPSYRPTPDYETVMRQMKRGILHTDSQSQSLRNLNIINTHAYNQPEDLVYSQPEMRERHPYTVPYGPQGVYSNKLVSPSDQRNPKNNVVPSKPGASAISHTVSTPELANMQLQGSHNYSTAHMLKNYLFRPPPPYPRPRPATSTPDLASHRHKYVSGSSPDLVTRKVQLSVKTFQEDSSPVVHQSLQEVSEPLTATKHHGTVNKRHSLEVMNSMVRGMEAMTLKSLHLPMARRNTLREQGPPEEGSGSHEVPQLPQYHHKKTFSDATMLIHSSESEEEEEEAPESVPQIPMLREKMEYSAQLQAALARIPNKPPPEYPGPRKSVSNGALRQDQASLPPAMARARVLRHGPAKAISMSRTDPPAVNGASLGPSISEPDLTSVKERVKKEPVKERPVSEMFSLEDSIIEREMMIRNLEKQKMAGLEAQKRPLMLAALNGLSVARVSGREENRVDATRVPMDERFRTLKKKLEEGMVFTEYEQIPKKKANGIFSTAALPENAERSRIREVVPYEENRVELIPTKENNTGYINASHIKVVVGGAEWHYIATQGPLPHTCHDFWQMVWEQGVNVIAMVTAEEEGGRTKSHRYWPKLGSKHSSATYGKFKVTTKFRTDSVCYATTGLKVKHLLSGQERTVWHLQYTDWPDHGCPEDVQGFLSYLEEIQSVRRHTNSMLEGTKNRHPPIVVHCSAGVGRTGVLILSELMIYCLEHNEKVEVPMMLRLLREQRMFMIQTIAQYKFVYQVLIQFLQNSRLI"}, "B3": {"name": "full-length PTPN14 with a C-terminal V5 tag (protein, UniProt Q15678 1-1187)", "chain": "B2 chain"}, "B4": {"name": "PTPN14, endogenous (protein, UniProt Q15678 1-1187)", "chain": "B2 chain"}}, "key": {"[1]": {"molecular_target": "HPV18 E7-Flag-HA, wild type (human papillomavirus type 18) (UniProt P06788)", "assay": "co-IP; N/Tert-1 E7-Flag-HA cells transduced with V5-tagged PTPN14 forms or fragments, harvested 48 h posttransduction; anti-HA immunoprecipitation, Western blot for V5 or PTPN14"}, "[2]": {"molecular_target": "HPV16 E7-Flag-HA, wild type (human papillomavirus type 16) (UniProt P03129)", "assay": "co-IP; N/Tert-1 E7-Flag-HA cells transduced with V5-tagged PTPN14 forms or fragments, harvested 48 h posttransduction; anti-HA immunoprecipitation, Western blot for V5 or PTPN14"}, "[3]": {"molecular_target": "HPV16 E7-Flag-HA, wild type (human papillomavirus type 16) (UniProt P03129)", "assay": "SEC + co-IP; N/Tert-1 E7 lysate (MCLB: 50 mM Tris pH 7.8, 150 mM NaCl, 0.5% NP-40) fractionated on Superose 6 10/300; even-numbered 0.5-ml fractions used for anti-HA immunoprecipitation, Western blot"}, "[4]": {"molecular_target": "HPV16 E7-Flag-HA, wild type (human papillomavirus type 16) (UniProt P03129)", "assay": "co-IP; anti-HA agarose immunoprecipitation of HA-tagged E7 from N/Tert-1 cell lysates; endogenous partners detected by Western blot"}, "[5]": {"molecular_target": "T1, HPV1a E7 tagged with Flag and HA (human papillomavirus type 1a) (UniProt P06465)", "T1 sequence": "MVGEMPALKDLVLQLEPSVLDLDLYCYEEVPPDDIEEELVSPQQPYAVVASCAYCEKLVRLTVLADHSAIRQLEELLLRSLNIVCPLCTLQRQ", "assay": "co-IP; anti-HA agarose immunoprecipitation of HA-tagged E7 from N/Tert-1 cell lysates; endogenous partners detected by Western blot"}}, "note": "These are yes or no findings as the source states them, for the method shown. Binding seen in cells or lysates may run through a third protein. Some binding calls cover weakened binding; strength is not graded here. For some of these results: Where a sequence is shown, tags or fusion partners need not be part of it.", "data": [{"molecule": "PTPN14 L2 domain fragment, V5-tagged (from UniProt Q15678 501-801) (domain or fragment)", "values": [{"measurement": "binding", "setting": "[1]", "value": "no binding"}]}, {"molecule": "PTPN14 PTP domain fragment, V5-tagged (from UniProt Q15678 900-1187) (domain or fragment)", "values": [{"measurement": "binding", "setting": "[1]", "value": "binds"}]}, {"molecule": "PTPN14 ΔFERM, N-terminal V5 tag (from UniProt Q15678 342-1187) (domain or fragment)", "values": [{"measurement": "binding", "setting": "[2]", "value": "binds"}]}, {"molecule": "PTPN14 ΔLinker 1, N-terminal V5 tag (from UniProt Q15678 1-1187)", "values": [{"measurement": "binding", "setting": "[2]", "value": "binds"}]}, {"molecule": "PTPN14 ΔLinker 3, N-terminal V5 tag (from UniProt Q15678 1-1187)", "values": [{"measurement": "binding", "setting": "[2]", "value": "binds"}]}, {"molecule": "PTPN14 ΔPTP, N-terminal V5 tag (from UniProt Q15678 1-899) (domain or fragment)", "values": [{"measurement": "binding", "setting": "[2]", "value": "no binding"}]}, {"molecule": "UBR4, endogenous (from UniProt Q5T4S7 1-5183)", "values": [{"measurement": "binding", "setting": "[3]", "value": "binds"}, {"measurement": "binding", "setting": "[4]", "value": "binds"}, {"measurement": "binding", "setting": "[5]", "value": "no binding"}]}, {"molecule": "B1", "values": [{"measurement": "binding", "setting": "[3]", "value": "binds"}, {"measurement": "binding", "setting": "[4]", "value": "binds"}]}, {"molecule": "B2", "values": [{"measurement": "binding", "setting": "[2]", "value": "binds"}]}, {"molecule": "B3", "values": [{"measurement": "binding", "setting": "[2]", "value": "binds"}]}, {"molecule": "B4", "values": [{"measurement": "binding", "setting": "[1]", "value": "binds"}, {"measurement": "binding", "setting": "[3]", "value": "binds"}, {"measurement": "binding", "setting": "[4]", "value": "binds"}]}]}
